{"source": "the supplement of paper PMC8728848", "binders": {"B1": {"name": "Cohesin-mDC-ASGPR (Macaca mulatta) (protein)", "chain": "LDITSHHHHHHDDLDAVRIKVDTVNAKPGDTVRIPVRFSGIPSKGIANCDFVYSYDPNVLEIIEIEPGDIIVDPNPDKSFDTAVYPDRKIIVFLFAEDSGTGAYAITKDGVFATIVAKVKEGAPNGLSVIKFVEVGGFANNDLVEQKTQFFDGGVNVGDTTEPATPTTPVTTPTTTDDLDAASSQNSKFQRDLVTLRTDFSNFTSNTVAEIQALTSQGSSVEEMIASLKAEVEVIKQEQQAVHSEMLLRVQRLMQDLNKLTCQVATLKNNASTERTCCPVNWVEHQDSCYWFSRSGMPWAEAEKHCQLENAHLVVINSREEQNFVQEHLSFAYTWMGLSDREGAWKWVDGTDYETGFQNWKPGQPDDWQGHGLGGGEDCAHFHPDGRWNDDVCQRPYYWVCEAGLTQASQESH"}}, "experiment_in_all_cases": "glycan array binding signal (z-score within array); higher = stronger binding", "conditions_in_all_cases": "glycan notation: IUPAC condensed, linker removed", "key": {"[1]": {"target": "Fuc(a1-3)[Gal3S(b1-4)]GlcNAc6S", "summary_of_the_method": "(§1)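 Negative Z-scores can be read as non-binding. The Z-score is calculated within each array and then averaged across arrays of one protein sequence at different concentrations or buffers and across linkers. Arrays, 3228 in all, were curated from the Consortium for Functional Glycomics database and kept only where the protein sequence was available.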"}, "[2]": {"target": "Fuc(a1-3)[GalNAc(b1-4)]GlcNAc", "summary_of_the_method": "as §1"}, "[3]": {"target": "Fuc(a1-3)[GalNAc(b1-4)]GlcNAc6S", "summary_of_the_method": "as §1"}, "[4]": {"target": "Fuc(a1-4)GlcNAc", "summary_of_the_method": "as §1"}, "[5]": {"target": "Fuc(b1-3)GlcNAc", "summary_of_the_method": "as §1"}, "[6]": {"target": "Gal(a1-2)Gal", "summary_of_the_method": "as §1"}, "[7]": {"target": "Gal(a1-3)Gal", "summary_of_the_method": "as §1"}, "[8]": {"target": "Gal(a1-3)Gal(b1-3)GlcNAc", "summary_of_the_method": "as §1"}, "[9]": {"target": "Gal(a1-3)Gal(b1-3)GlcNAc(b1-2)Man", "summary_of_the_method": "as §1"}, "[10]": {"target": "Gal(a1-3)Gal(b1-3)GlcNAc(b1-2)Man(a1-3)[Gal(a1-3)Gal(b1-3)GlcNAc(b1-2)Man(a1-6)]Man(b1-4)GlcNAc(b1-4)GlcNAc", "summary_of_the_method": "as §1"}, "[11]": {"target": "Gal(a1-3)Gal(b1-3)GlcNAc(b1-3)GalNAc", "summary_of_the_method": "as §1"}, "[12]": {"target": "Gal(a1-3)Gal(b1-3)GlcNAc(b1-6)GalNAc", "summary_of_the_method": "as §1"}, "[13]": {"target": "Gal(a1-3)Gal(b1-3)[Fuc(a1-4)]GlcNAc(b1-2)Man(a1-3)[Gal(a1-3)Gal(b1-3)[Fuc(a1-4)]GlcNAc(b1-2)Man(a1-6)]Man(b1-4)GlcNAc(b1-4)GlcNAc", "summary_of_the_method": "as §1"}, "[14]": {"target": "Gal(a1-3)Gal(b1-4)Glc", "summary_of_the_method": "as §1"}, "[15]": {"target": "Gal(a1-3)Gal(b1-4)GlcNAc", "summary_of_the_method": "as §1"}, "[16]": {"target": "Gal(a1-3)Gal(b1-4)GlcNAc(b1-2)Man", "summary_of_the_method": "as §1"}, "[17]": {"target": "Gal(a1-3)Gal(b1-4)GlcNAc(b1-2)Man(a1-3)[Gal(a1-3)Gal(b1-4)GlcNAc(b1-2)Man(a1-6)]Man(b1-4)GlcNAc(b1-4)GlcNAc", "summary_of_the_method": "as §1"}, "[18]": {"target": "Gal(a1-3)Gal(b1-4)GlcNAc(b1-3)GalNAc", "summary_of_the_method": "as §1"}, "[19]": {"target": "Gal(a1-3)Gal(b1-4)GlcNAc(b1-6)GalNAc", "summary_of_the_method": "as §1"}, "[20]": {"target": "Gal(a1-3)Gal(b1-4)[Fuc(a1-3)]GlcNAc", "summary_of_the_method": "as §1"}, "[21]": {"target": "Gal(a1-3)Gal(b1-4)[Fuc(a1-3)]GlcNAc(b1-2)Man(a1-3)[Gal(a1-3)Gal(b1-4)[Fuc(a1-3)]GlcNAc(b1-2)Man(a1-6)]Man(b1-4)GlcNAc(b1-4)GlcNAc", "summary_of_the_method": "as §1"}, "[22]": {"target": "Gal(a1-3)GalNAc", "summary_of_the_method": "as §1"}, "[23]": {"target": "Gal(a1-3)[Gal(a1-4)]Gal(b1-4)GlcNAc", "summary_of_the_method": "as §1"}, "[24]": {"target": "Gal(a1-4)Gal(b1-3)GlcNAc(b1-2)Man(a1-3)[Gal(a1-4)Gal(b1-3)GlcNAc(b1-2)Man(a1-6)]Man(b1-4)GlcNAc(b1-4)GlcNAc", "summary_of_the_method": "as §1"}, "[25]": {"target": "Gal(a1-4)Gal(b1-4)Glc", "summary_of_the_method": "as §1"}, "[26]": {"target": "Gal(a1-4)Gal(b1-4)GlcNAc", "summary_of_the_method": "as §1"}, "[27]": {"target": "Gal(a1-4)Gal(b1-4)GlcNAc(b1-2)Man(a1-3)[Gal(a1-4)Gal(b1-4)GlcNAc(b1-2)Man(a1-6)]Man(b1-4)GlcNAc(b1-4)GlcNAc", "summary_of_the_method": "as §1"}, "[28]": {"target": "Gal(a1-4)Gal(b1-4)GlcNAc(b1-3)Gal(b1-4)Glc", "summary_of_the_method": "as §1"}, "[29]": {"target": "Gal(a1-4)GlcNAc", "summary_of_the_method": "as §1"}, "[30]": {"target": "Gal(a1-6)Glc", "summary_of_the_method": "as §1"}, "[31]": {"target": "Gal(b1-2)Gal", "summary_of_the_method": "as §1"}, "[32]": {"target": "Gal(b1-3)Gal", "summary_of_the_method": "as §1"}, "[33]": {"target": "Gal(b1-3)Gal(b1-4)GlcNAc", "summary_of_the_method": "as §1"}, "[34]": {"target": "Gal(b1-3)GalNAc", "summary_of_the_method": "as §1"}, "[35]": {"target": "Gal(b1-3)GalNAc(a1-3)[Fuc(a1-2)]Gal(b1-4)Glc", "summary_of_the_method": "as §1"}, "[36]": {"target": "Gal(b1-3)GalNAc(a1-3)[Fuc(a1-2)]Gal(b1-4)GlcNAc", "summary_of_the_method": "as §1"}, "[37]": {"target": "Gal(b1-3)GalNAc(b1-3)Gal", "summary_of_the_method": "as §1"}}, "note": "This is one part of the list."}
{"binder": "B1", "values": [{"measurement": "glycan array binding signal (z-score)", "setting": "[1]", "result": -0.39}, {"measurement": "glycan array binding signal (z-score)", "setting": "[2]", "result": 2.58}, {"measurement": "glycan array binding signal (z-score)", "setting": "[3]", "result": 3.4}, {"measurement": "glycan array binding signal (z-score)", "setting": "[4]", "result": -0.418}, {"measurement": "glycan array binding signal (z-score)", "setting": "[5]", "result": -0.391}, {"measurement": "glycan array binding signal (z-score)", "setting": "[6]", "result": -0.392}, {"measurement": "glycan array binding signal (z-score)", "setting": "[7]", "result": -0.427}, {"measurement": "glycan array binding signal (z-score)", "setting": "[8]", "result": -0.213}, {"measurement": "glycan array binding signal (z-score)", "setting": "[9]", "result": -0.431}, {"measurement": "glycan array binding signal (z-score)", "setting": "[10]", "result": -0.322}, {"measurement": "glycan array binding signal (z-score)", "setting": "[11]", "result": -0.334}, {"measurement": "glycan array binding signal (z-score)", "setting": "[12]", "result": 2.66}, {"measurement": "glycan array binding signal (z-score)", "setting": "[13]", "result": -0.329}, {"measurement": "glycan array binding signal (z-score)", "setting": "[14]", "result": -0.402}, {"measurement": "glycan array binding signal (z-score)", "setting": "[15]", "result": -0.393}, {"measurement": "glycan array binding signal (z-score)", "setting": "[16]", "result": -0.326}, {"measurement": "glycan array binding signal (z-score)", "setting": "[17]", "result": -0.388}, {"measurement": "glycan array binding signal (z-score)", "setting": "[18]", "result": -0.414}, {"measurement": "glycan array binding signal (z-score)", "setting": "[19]", "result": 2.57}, {"measurement": "glycan array binding signal (z-score)", "setting": "[20]", "result": -0.372}, {"measurement": "glycan array binding signal (z-score)", "setting": "[21]", "result": -0.318}, {"measurement": "glycan array binding signal (z-score)", "setting": "[22]", "result": -0.303}, {"measurement": "glycan array binding signal (z-score)", "setting": "[23]", "result": -0.433}, {"measurement": "glycan array binding signal (z-score)", "setting": "[24]", "result": -0.414}, {"measurement": "glycan array binding signal (z-score)", "setting": "[25]", "result": -0.272}, {"measurement": "glycan array binding signal (z-score)", "setting": "[26]", "result": -0.412}, {"measurement": "glycan array binding signal (z-score)", "setting": "[27]", "result": -0.413}, {"measurement": "glycan array binding signal (z-score)", "setting": "[28]", "result": -0.401}, {"measurement": "glycan array binding signal (z-score)", "setting": "[29]", "result": -0.384}, {"measurement": "glycan array binding signal (z-score)", "setting": "[30]", "result": -0.379}, {"measurement": "glycan array binding signal (z-score)", "setting": "[31]", "result": -0.312}, {"measurement": "glycan array binding signal (z-score)", "setting": "[32]", "result": -0.401}, {"measurement": "glycan array binding signal (z-score)", "setting": "[33]", "result": -0.416}, {"measurement": "glycan array binding signal (z-score)", "setting": "[34]", "result": -0.391}, {"measurement": "glycan array binding signal (z-score)", "setting": "[35]", "result": -0.391}, {"measurement": "glycan array binding signal (z-score)", "setting": "[36]", "result": -0.414}, {"measurement": "glycan array binding signal (z-score)", "setting": "[37]", "result": -0.244}]}
